# In the supplement of paper PMC12217912:
# The list shows a part of the results. Sequences were assembled here from the parent chain. Inactive controls read about 0.05.
# B1: TEV protease; numbered along this chain (parent)
# chain: MGESLFKGPRDYNPISSSICHLTNESDGHTTSLYGIGFGPFIITNKHLFRRNNGTLVVQSLHGVFKVKDTTTLQQHLVDGRDMIIIRMPKDFPPFPQKLKFREPQREERICLVTTNFQTKSMSSMVSDTSCTFPSGDGIFWKHWIQTKDGQCGSPLVSTRDGFIVGIHSASNFTNTNNYFTSVPKNFMELLTNQEAQQWVSGWRLNADSVLWGGHKVFMVKPEEPFQPVKEATQL
# Variants of: B1
# Assay: raw area under fraction-flipped curve 0-4 h after induction (AUC4h, not background-subtracted), DNA-recorder readout of cleavage of the substrate (dimensionless); higher = more cleavage of the substrate by the protease variant
# Conditions: temperature: 34 °C; time window: 0-4 h after rhamnose induction
# Description: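 In vivo DNA recorder in E. coli TOP10(DE3) ΔrhaA at 34 °C. Each TEVp single-site mutant (parent TEVp 0) is paired with a single-site variant of the 7-mer TEVs (canonical ENLYFQ|S). The substrate sits between flexible linkers in a Bxb1-sfGFP-TEVs-SsrA fusion, so cleavage stabilises Bxb1 and speeds flipping of a recombination array, read by NGS. The value is the raw area under the fraction-flipped curve over 0-4 h after rhamnose induction (AUC4h), with ≥20 reads per time point. It is not background-subtracted; inactive controls average about 0.047.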
# 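Note: Bxb1 expression induced with 0.2% (w/v) L-rhamnose at OD600 near 0.5, cultures sampled hourly, flipped fraction per protease–substrate barcode pair counted by paired-end Illumina sequencing.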
Variant,area with substrate ENLYFQA,area with substrate ENLYFQC,area with substrate ENLYFQD,area with substrate ENLYFQG,area with substrate ENLYFQH,area with substrate ENLYFQI,area with substrate ENLYFQK,area with substrate ENLYFQL,area with substrate ENLYFQM,area with substrate ENLYFQP,area with substrate ENLYFQR,area with substrate ENLYFQS,area with substrate ENLYFQT,area with substrate ENLYFQW,area with substrate ENLYFQF,area with substrate ENLYFQQ,area with substrate ENLYFQV,area with substrate ENLYFQY,area with substrate ENLYFQN,area with substrate ENLYFQE
G63P,0.102,0.0828,0.0656,0.0673,0.0539,0.0459,0.0456,0.0496,0.0635,0.0496,0.0563,0.0693,0.0579,0.0534,,,,,,
F38S,0.0876,,0.0625,0.0757,0.0601,0.0477,0.0536,0.0503,0.0695,0.0466,0.0678,0.0821,0.0398,0.0508,0.0596,0.0616,0.0463,0.0715,,
G2W,0.154,,0.0517,,0.111,,0.0625,0.0685,,,0.0969,0.13,,0.0644,0.103,0.0826,,0.0964,,
G2P,0.127,0.175,,,,0.0484,,0.0658,,,0.0586,0.127,0.0595,0.072,,,0.0739,,0.0959,
L56N,0.0308,0.045,0.0461,0.0451,0.0366,0.0415,0.0473,,0.0446,,0.0312,0.0476,0.0395,0.045,0.0551,0.0391,,0.0498,0.0445,
P9S,0.0962,0.117,,,,,,0.0552,,,0.0678,0.0983,0.0666,0.064,,0.0784,,,0.063,
P9E,0.0643,0.0797,,,0.0605,,0.077,0.0601,,0.0539,0.0597,0.0817,0.0603,,,,,0.0597,0.09,
G35F,0.0653,0.049,,0.0407,,0.0366,0.0458,,,,,0.0362,0.0442,,,,0.0247,,,
G35Y,0.0372,,,,,,,,,,,0.0459,,0.0566,,,,0.0227,0.0488,
V58C,0.12,0.122,0.0837,,0.0493,0.0611,,0.05,,,0.043,0.0926,0.0544,0.0686,0.0673,0.0831,,,0.056,0.063
V58Y,0.058,,,,,0.0486,,0.0715,0.0677,,0.0579,0.066,0.0494,0.0494,,,,0.0492,0.0073,
D69V,0.0427,0.0969,0.0615,,0.0696,0.0485,,,0.0831,0.0502,0.0628,0.0862,,0.0535,0.0784,,,,0.0612,
N53H,0.0708,0.072,,0.0754,0.102,0.0487,0.0651,0.0657,0.101,0.0707,0.0587,0.0865,0.0706,0.0628,,0.0564,,,0.0736,
R51Q,0.101,0.129,,0.151,,0.0569,,0.0643,0.0878,,0.0409,0.113,,0.0734,0.0945,,0.0603,0.0801,,
R51V,0.0998,0.112,,0.0818,0.086,0.0638,0.0616,0.0612,0.0543,,0.0522,0.102,0.0438,0.0622,,0.0688,0.0717,,0.07,0.0689
K7M,0.1,,,0.103,,,,0.0362,0.0561,,0.064,0.0954,0.111,0.0654,,,0.0613,,0.076,
R50T,0.111,0.129,0.0527,,0.101,0.0619,0.0565,0.0428,0.114,,0.0795,0.121,0.0717,0.0771,0.0761,,0.0555,,0.0767,0.0597
G37D,0.0464,0.0484,,,0.0308,0.0442,0.0104,0.0543,,,0.0447,0.0425,0.0417,0.043,0.0386,0.0363,,,,
F49L,0.0434,0.0612,,0.0988,0.0723,0.0376,0.0581,,0.0595,,0.0605,0.0653,0.0416,0.0658,,,,0.0476,0.0562,
F49T,0.0591,0.0667,,0.0527,0.0841,0.0556,0.0508,0.0523,0.0361,,0.0516,0.0609,,0.0585,,0.0453,0.0583,,,
F41Y,0.145,0.171,0.0841,0.106,,0.0692,,0.0467,0.086,0.0649,0.0641,0.101,0.0552,0.0632,,0.0636,0.0771,0.0757,0.0896,
F41M,0.107,0.154,,0.0965,0.0674,0.0632,0.0638,,,0.0601,0.0572,0.0998,0.0599,0.0765,0.079,,,0.0437,0.0697,0.0398
F41E,0.0518,,,0.0533,,0.0557,,0.0425,,,,0.0565,0.0571,0.0527,,,,,0.0593,
D27I,0.0772,0.0937,0.0484,0.0844,0.0506,0.0628,0.0535,0.0535,0.0672,,0.0456,0.0863,,0.0686,,0.0633,,0.0652,0.0699,0.0549
D27F,0.0924,0.111,0.0568,0.0979,,0.0806,0.0591,,,0.065,0.0559,0.0972,0.0603,,,,,0.0634,0.0767,
K46G,0.0814,0.0976,0.0558,0.0898,0.0696,0.0521,,0.0711,,0.0431,0.0552,0.0867,0.0609,0.0672,,,0.0443,0.0643,0.0591,
S26I,0.0783,0.0734,0.0678,0.106,0.06,0.048,0.0507,0.0614,0.0701,,,0.0747,0.0546,0.0606,,,,0.0415,0.0625,0.0517
